Source: the RNAGym collection of RNA variant scans (doi:10.7554/elife.90254)
Read counts are not given, so values of variants with three or more changes are uncertain.

B1: LINE1-full (parent)
chain: UACGUAGGUGGUUUUCCCCUGAUAGUGCUAAGGGGGCCUGGAAGUUUGGACUGGGCAGAGCUCAACACAGCGUGGCAAAGUGGCUGUGGCUAGACUGCCUCUCUGGAUUCCUCGUCACUCAGCAGGGCAUCUCUGAGAGAAAUGCC

Variants of: B1
Experiment: self-cleavage, relative activity (ratio to wild type); higher = more cleavage; in vitro, sequencing; the parent is a self-cleaving ribozyme

Variant	self-cleavage
A43U A77U A138G	1.45
A42U U62C A77U	0.04
A43U A59G C71U	0.04
A43G U46A A65G C99U	0.02
U45A C56U A140G	0.05
U45C A78G A141G	1.87
A43G A67G U102C A141G A142U	0
A43C U73C C113U	1.86
A43G G83A U87C A121G	0.14
A42U U47A U85A	0.01
A42G U87C U112C	0.18
A42G U115G A129G	2.09
A43G A50U A67G A79C	0
A42G U119A U134C	1.21
A43G U45G G126A	1.53
A43G U96C A138U U143C	0
A42U U85C A94G	0
A42U U85A U115C	0.05
U45C A67U A92U U96C C145G	0
U45C A65G U91A	0
A43G U102A U132C	1.6
A43G U91C G125U	0
A43G C51U G93A	0.07
A42G G74A U132A	0.55

Variant	self-cleavage
A43G U45C G97U	0.09
U45A U85C C95U U109C	0.07
A43G U47A U91C U104C	0
A43G C66U A92G	0.01
U45C A65G U87A U102C	0.16
A43G U52A A59U U81A U132C	1.29
A42G A107G A138G	1.04
A43G U115C A142G	0.84
A42U A64U A78G U112A	0.09
A42G A107G U115C	0
U45C A92G G125A	0.13
U45C A57U U62C	0
U45A U115C A141G	0.66
A42G G106A A121G	1.41
A43C A50G C56A	0.15
A43G A65G U73C	0
A42G U52C A64G	0
A42G U119C A140G	1.31
A43U A67G U132A	0.57
A43G A94U C128U	0.18
A42G C56U U62C U100A G122U A124U	0.04
A43G A142G C145U	0.79
U45C A107G C128G	1.04
A42G A79G C111A A142G	1.59

Variant	self-cleavage
U45A U112C A124G	0.32
A43U A67U A94G A129G	0.19
G44A C66U U73C	0.03
A43G U108A A140G	1.23
A43G G58U A69G	0.06
U45C A92G U104A U109C	0
A42G U73C A77U	1.8
A42G G74A A142G	1.13
A43G A64U U108C U134C	0.79
A42G U115A A136U	1.85
A42G A77G U119C	2.92
A43U G55U A77U U112C U115G U119A	0.09
A42G U52A U91C C133A G137U	0.47
A43G G60A G97A U100A A136U	0
A42G U73C U96A	0.11
U45C A57G G127C	1.23
A42G U52A U85G	0.33
A42U U46C U143C	1.06
A43G A121U A136G A142G	1.11
A43G U45C G82A	0.98
A42G U62C U108C	0.08
U45C A64U A67U A79G	0.08
A43G C84A A94U U119C A140G	0.01
A42U G106C U112G U132A	1.92

Variant	self-cleavage
A42G U47A G60U U143C	0.05
A42G U96C A136G	0.36
A43G A65G A92G C111U U130C U143C	0
A43U U102C U104A	1.27
A42U U87C C99U	0.07
A43G A77G U112C	1.19
A42G U45C C98A A124G	0.05
A42G A77G U109C U115A	1.6
A42G C110A A140G	1.03
A42U U62C U85A	0.09
A42G U112A G125C A140G	1.99
A42G U47C A141U	1.09
A42G U62C U96A U130A U132A	0.03
A43G G60U A69U A78G U104A A142G	0
A43G U52C G72U A77U	1.07
A43G A64G U100C A142G	0
A43G U46C A69G A141G G144A	0
A42U U87A U104A	0.04
A42G U73C U130C	2.76
A42G U81A U119C	0
U45A U81C U132A A140U	0.99
A42U U73A C145U	0.87
A43G U81C U130C A136G	1.84
G44A U102C C118U A138G	1.57

Variant	self-cleavage
A42U U102C U119C G122A A136G A140G	0.58
U45C A57G U143C	1.39
A43G A67U U100C	0.12
U45C A59U C76U A92G A129U	0.12
A43G U109C A140G	0.3
A43U A77U U119C	1.3
A43U A79G U85C	0.25
U45A A129G A142G	1.67
A42G G72A U115C	1.83
A43G A57U A77U	0.12
A43G U47A U87A U102A	0.07
U45C A67G A121G A142G	0.88
G44U G53A U115G	1.71
A42U U85A U96A	0.05
U45C A50G U85C A94U A129G A141G	0
A43G A92C U112A C116U A140G A142G	0.11
A43G C66G U119C A138C	0.11
A43G A50U U102C C113U A138G	0
U45C A67G A77G	0
A42U A69G A79G A121G A141G	0.57
A43G A50G A140G U143C	0
A42G U45C A117U U119C	1.84
A42G A94G A138G A141G	0.88
A43G G55A A124G	0.05

Variant	self-cleavage
U45A U46C U73A G114A	1.47
A42G G53A C71U	0.58
A42G A69U U104C	0.14
U45C A77U U143C	1.39
A42G U52C A121U A129U U130C	2.04
U45C A64U A78G	0.33
A42G U62C U119C	0
A43G A50G U112A	0.57
A42G U85C A141G	0.24
A43G U47C U52A A94G	0
A42G U62C U104C	0
A42G U47C A57U U85C	0
A43G A59G C63U A65G A136G	0.14
A42G U45C A129G U134C A140G	2.3
U45C A50U A78G A140G	0.4
A43U A117G A140U	2.45
A43U U104A U134C	1.93
U45C A78G U85C G105A	0.45
A43G G74A U96A	0.11
A42G A77G U108C	2.92
A43G U46C A64U U132C A138U	0.69
U45A U104C U119C U130A	1.95
U45A A78U U100C	2.43
A42G U46C A78G U96A U143C	0

Variant	self-cleavage
A42U A57G U102C	0.2
A42U A94G A107G U115A	0.14
U45A A59G A129G A140C	0.32
A43U U112C A117G A124G	0
A43G A67U U87A U100C	0.82
A42G A77G U130C	1.95
A43G A59U A136C A138G	0.8
U45C A64G U134A	0.53
U45C A64U U134C	0.4
A43G U52C U112C	1.26
U45A A57G A64G	0.23
A43G U45C U47A A78U	1.09
A43G U47A A121U U143A	1.14
A43G U52G U96A	0.39
A43G A50G C71U U100G U132C	0.61
A43U U102A U115C	1.86
A42U U62G U104A A129G A140G	0.09
A43G U73A C113U	1.58
A42U U52G A69U	0.03
A43G A67U A77G U130C	0
A42G U45A A69G C101U U134A	0.48
A42G U47A A94U	0.17
A42U U52C U115C	1.49
